Test results as given in publication PMC4336329 (PLoS ONE, 2015).
The whole screen tested about 310,000 compounds, of which about 2,200 (0.71%) showed an effect of 50% or more. The effect is printed as a negative number. The list shows a part of the results.

Biological target: human ether-à-go-go-related gene (hERG) potassium channel (human, UniProt Q12809)
Assay: primary screen, population patch clamp on CHO cells stably expressing hERG

human ether-à-go-go-related gene (hERG) potassium channel, sequence (Q12809 whole entry, looked up): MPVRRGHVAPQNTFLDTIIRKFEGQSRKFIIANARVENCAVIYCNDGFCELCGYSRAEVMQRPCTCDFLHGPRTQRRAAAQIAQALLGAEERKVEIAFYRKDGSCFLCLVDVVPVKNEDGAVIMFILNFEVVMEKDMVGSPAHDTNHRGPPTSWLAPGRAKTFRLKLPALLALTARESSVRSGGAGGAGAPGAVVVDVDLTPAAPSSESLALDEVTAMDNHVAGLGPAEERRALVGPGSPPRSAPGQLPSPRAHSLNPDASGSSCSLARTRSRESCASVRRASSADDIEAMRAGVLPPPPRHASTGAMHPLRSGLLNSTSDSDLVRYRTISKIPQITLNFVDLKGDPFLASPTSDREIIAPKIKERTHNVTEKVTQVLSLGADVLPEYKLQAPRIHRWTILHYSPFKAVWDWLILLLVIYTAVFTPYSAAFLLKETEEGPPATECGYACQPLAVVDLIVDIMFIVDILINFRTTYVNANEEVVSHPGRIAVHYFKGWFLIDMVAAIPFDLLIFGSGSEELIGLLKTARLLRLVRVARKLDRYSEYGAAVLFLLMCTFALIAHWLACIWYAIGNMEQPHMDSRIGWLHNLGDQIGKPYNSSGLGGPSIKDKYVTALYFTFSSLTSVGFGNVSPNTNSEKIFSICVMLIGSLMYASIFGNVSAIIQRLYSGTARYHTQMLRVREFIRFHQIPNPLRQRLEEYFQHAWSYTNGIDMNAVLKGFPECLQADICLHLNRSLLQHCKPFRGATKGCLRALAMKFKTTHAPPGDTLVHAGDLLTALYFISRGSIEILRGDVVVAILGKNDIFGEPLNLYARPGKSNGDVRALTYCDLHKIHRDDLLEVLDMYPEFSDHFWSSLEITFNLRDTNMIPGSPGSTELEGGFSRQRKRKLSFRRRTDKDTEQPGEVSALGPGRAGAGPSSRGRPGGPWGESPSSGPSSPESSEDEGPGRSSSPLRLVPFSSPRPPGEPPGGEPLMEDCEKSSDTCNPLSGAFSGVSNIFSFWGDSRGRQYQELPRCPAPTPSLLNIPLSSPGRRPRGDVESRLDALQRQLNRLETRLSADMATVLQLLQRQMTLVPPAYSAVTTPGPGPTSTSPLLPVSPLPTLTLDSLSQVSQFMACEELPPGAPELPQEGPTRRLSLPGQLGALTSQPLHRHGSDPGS

SMILES | hERG current change (%, negative = inhibition) at 1uM [%]
Cc1nc2cc(NCc3ccc(Cl)cc3)ccc2n1C | -30.1
Cc1cc(C)cc(NC(=O)COC(=O)CCn2c(C)csc2=O)c1 | 5.96
CCc1ccc(OCCOCC(O)CN2CCN(Cc3ccc(Cl)cc3)CC2)cc1.Cl (stereo not drawn) | -22.3
COc1ccc(N(CC(O)CN2CCOCC2)S(=O)(=O)c2ccc(C)cc2)cc1 (stereo not drawn) | -6.48
COc1cc2c(cc1NC(=O)CSc1ccccc1)oc1ccccc12 | 20.6
CCCC(=O)Nc1c(-c2cccc(C)c2)c(=O)c2ccccc2n1C | 5.62
CC1CCN(C(=O)c2ccc(SCc3ccccc3F)c([N+](=O)[O-])c2)CC1 | 10.7
CCCN1C2=C(C(=O)CC(C)(C)C2)C(c2ccc(F)cc2)C2=C1c1ccccc1C2=O (stereo not drawn) | -0.904
CCCOc1ccc(N2C(=O)CC(NCc3cccnc3)C2=O)cc1 (stereo not drawn) | 6.06
CC(=O)Nc1ccc(Cc2ccncc2)cc1 | 9.37
C=CCC(=O)N1CCCC(C(=O)c2ccc(Cl)cc2)C1 (stereo not drawn) | 12.4
O=C(COC(=O)C1(c2ccccc2)CC1)N1CCN(c2ccc(F)cc2)CC1 | -17.6
CCc1nc2oc3ccccc3c(=O)c2c(=O)n1CCOC | 5.93
O=c1ccc(-c2ccc(S(=O)(=O)NCc3cccc(Br)c3)s2)n[nH]1 | 2.87
Cc1noc(C)c1C(=O)OCC(=O)c1ccc[nH]1 | 7.61
COc1cccc2c1C(=O)c1c(O)c3c(c(O)c1C2=O)C[C@@](O)(C(=O)CO)C[C@@H]3O[C@H]1C[C@H](N)[C@H](O)[C@H](C)O1.Cl | 13.2
COc1ccc(/C=C(/NC(=O)c2ccc(OC)c(OC)c2)C(=O)NCCc2c[nH]c3ccccc23)cc1 | 7.12
CC(Cc1ccccc1)NCc1ccccc1O.Cl (stereo not drawn) | 14.8
Cc1ccc(C(C)NC(=O)CSc2ccc(S(=O)(=O)N3CCOCC3)cn2)cc1C (stereo not drawn) | 5.8
CN(C)CCCCOc1ccccc1F.O=C(O)C(=O)O | 6.04
Cc1ccc(C)c(N2CCN(C(=O)c3ccc4c(=O)n5c(nc4c3)CCCCC5)CC2)c1 | 1.76
COc1ccc(CC(=O)Nc2cccc(Cl)c2C)cc1S(=O)(=O)N1CCOCC1 | 6.04
CN(C)c1ncc(S(=O)(=O)c2ccccc2)c(-c2ccc(Cl)cc2Cl)n1 | 3.66
COc1ccc(N2C(=O)CC2(C#N)c2ccc(OCc3ccccc3)cc2)cc1 (stereo not drawn) | -2.34
O=C(Nc1ccccc1Oc1ccccc1)c1cccc([N+](=O)[O-])c1 | 0.957
COc1ccc(N(C(=O)c2snc(C(N)=O)c2N)C(C(=O)NC2CCCC2)c2ccc(OC)c(OC)c2)cc1 (stereo not drawn) | 12.4
COc1ccc(C(=O)N/N=C(\C)CC(=O)Nc2ccc3c(c2)OCCO3)c(OC)c1 | 12.8

SMILES | hERG current change (%, negative = inhibition) at 1uM [%]
O=C(CN1CCOCC1)Nc1ccccc1-c1ccccc1 | 8.59
Cc1nn(Cc2ccc(F)cc2)c(Cl)c1/C=N/NC(=O)c1cccnc1 | -5.67
Cc1nc2ccccc2n1C1CCN(C(=O)Nc2ccccc2)CC1 | -5.38
CC(=O)[C@@H]1[C@@H](C)N(Cc2ccccc2)C(=O)N[C@H]1c1cccc(C(F)(F)F)c1 | 11.1
COCCn1c(SCc2nc3scc(-c4ccc(Cl)cc4)c3c(=O)[nH]2)nnc1-c1cccc(C)c1 | 3.21
Cc1ccc(C)c(-n2cc(CN3CCCN(C=O)CC3)c(-c3ccccc3)n2)c1 | 7.15
CC(=O)Nc1ccc(S(=O)(=O)N(C)CCOCc2ccccc2)cc1 | 5.28
Cc1ccc(O)c(NC(=O)c2cccc(S(=O)(=O)N3CCCCC3)c2)c1 | -2.57
Cc1nn(C)cc1/C=N/NC(=S)Nc1ccccc1 | -3.63
CCOc1ccc(NC(=O)CCc2c(C)noc2C)cc1OC | 4.71
Cl.Nc1ccc2nc(Cc3ccccc3)[nH]c2c1 | 11
Cc1ccc(S(=O)(=O)NCc2ccccc2)cc1C(=O)N1CCCC(C(F)(F)F)C1 (stereo not drawn) | 3.5
CCn1nnc(-c2ccccc2NS(=O)(=O)c2ccc(S(=O)(=O)N3CCCCCC3)cc2)n1 | 7.18
Cc1ccc(N2CC(C(=O)N3CCC4(CC3)CC(=O)c3ccccc3O4)CC2=O)cc1 (stereo not drawn) | -47.4
Clc1ccc(Sc2cnc3ccccc3n2)cc1 | 9.45
COc1ccc(NC(=O)[C@@H](NC(=O)N2C[C@H]3C[C@@H](C2)c2cccc(=O)n2C3)C(C)C)cc1OC | 11
Cc1cc(S(=O)(=O)NCC(=O)O)ccc1F | -4.76
O=C(N/N=C\c1cc(Cl)ccc1O)c1ccc(S(=O)(=O)N2CCCCC2)cc1 | 0.646
CC(=O)Nc1ccc(S(=O)(=O)NCCNS(=O)(=O)c2ccc(NC(C)=O)cc2)cc1 | 11
CCOC(=O)N1CCN(C(=O)CN(C)S(=O)(=O)c2ccc(Cl)cc2)CC1 | 14.8
O=C(COc1ccc(S(=O)(=O)N2CCOCC2)cc1)Nc1ccccc1F | -0.935
Cc1ccc(NC(=O)c2cc(-c3ccccc3)n[nH]2)cc1 | 12.5
COc1ccc(CN(Cc2ccc(C(=O)O)cc2)C(=S)Nc2cc(C)cc(C)c2)cc1OC | 10.8
COCCN(CC1CCCN(C2Cc3ccccc3C2)C1)C(=O)CCC(N)=O (stereo not drawn) | -70.8
O=C(O)CCNC(=O)c1cncc(Br)c1 | 7.47
COc1cc(Cl)c(C)cc1NC(=O)COC(=O)c1cc(SC)ccc1Cl | 13.2
CCOc1ccc(N(CC(=O)O)S(=O)(=O)c2ccc(F)cc2)cc1 | 8.33
